These results are taken from paper PMC4599898.

Holding throughout (test): split reporter; split YFP BiFC in transiently transformed Arabidopsis protoplasts, 2 ug of each plasmid, incubated overnight; read by flow cytometry (at least three biological replicates, minimum 30,000 cells); each pair tested in both fusion conformations (SPN and SPC); positive where the normalized BiFC score lies above the threshold 0.01 in both conformations
On the technique in general: Flow cytometry measures light scatter and fluorescence of single cells or particles in a stream.

Test [1] addresses T1, bZIP16 (Arabidopsis thaliana) (UniProt Q501B2).
T1 sequence: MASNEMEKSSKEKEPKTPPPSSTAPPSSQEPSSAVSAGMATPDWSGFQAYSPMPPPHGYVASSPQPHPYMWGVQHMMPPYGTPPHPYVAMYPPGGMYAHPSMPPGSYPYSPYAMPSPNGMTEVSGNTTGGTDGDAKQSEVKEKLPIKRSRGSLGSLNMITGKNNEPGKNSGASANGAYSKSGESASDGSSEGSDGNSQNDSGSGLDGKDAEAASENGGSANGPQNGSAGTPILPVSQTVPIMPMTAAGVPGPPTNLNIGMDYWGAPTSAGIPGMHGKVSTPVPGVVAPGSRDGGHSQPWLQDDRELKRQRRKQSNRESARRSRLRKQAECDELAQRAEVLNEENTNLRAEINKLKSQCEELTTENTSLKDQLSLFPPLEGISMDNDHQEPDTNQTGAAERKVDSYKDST

The target of test [2] is T2, GBF3 (Arabidopsis thaliana) (UniProt P42776).
T2 sequence: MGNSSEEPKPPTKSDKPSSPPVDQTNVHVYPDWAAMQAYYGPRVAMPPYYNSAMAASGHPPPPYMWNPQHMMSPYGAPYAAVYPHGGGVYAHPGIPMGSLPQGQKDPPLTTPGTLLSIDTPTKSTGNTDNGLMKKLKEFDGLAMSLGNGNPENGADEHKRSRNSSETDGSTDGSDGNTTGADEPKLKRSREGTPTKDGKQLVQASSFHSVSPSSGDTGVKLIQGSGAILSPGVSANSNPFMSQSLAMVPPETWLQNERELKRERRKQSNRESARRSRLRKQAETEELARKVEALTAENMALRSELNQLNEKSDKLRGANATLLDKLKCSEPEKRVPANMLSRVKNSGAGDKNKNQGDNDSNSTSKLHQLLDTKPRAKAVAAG

In test [3] the target is T3, bZIP68 (Arabidopsis thaliana) (UniProt Q84LG2).
T3 sequence: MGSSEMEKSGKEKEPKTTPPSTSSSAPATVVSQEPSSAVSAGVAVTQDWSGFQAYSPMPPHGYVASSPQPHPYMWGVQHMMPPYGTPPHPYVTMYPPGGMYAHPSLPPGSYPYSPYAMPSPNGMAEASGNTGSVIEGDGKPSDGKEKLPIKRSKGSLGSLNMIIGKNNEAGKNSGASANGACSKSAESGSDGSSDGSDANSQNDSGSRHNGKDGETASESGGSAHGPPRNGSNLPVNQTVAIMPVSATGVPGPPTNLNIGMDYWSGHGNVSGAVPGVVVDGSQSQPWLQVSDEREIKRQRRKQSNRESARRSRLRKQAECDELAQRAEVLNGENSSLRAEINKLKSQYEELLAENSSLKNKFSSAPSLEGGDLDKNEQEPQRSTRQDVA

The target of test [4] is T4, GBF2 (Arabidopsis thaliana) (UniProt P42775).
T4 sequence: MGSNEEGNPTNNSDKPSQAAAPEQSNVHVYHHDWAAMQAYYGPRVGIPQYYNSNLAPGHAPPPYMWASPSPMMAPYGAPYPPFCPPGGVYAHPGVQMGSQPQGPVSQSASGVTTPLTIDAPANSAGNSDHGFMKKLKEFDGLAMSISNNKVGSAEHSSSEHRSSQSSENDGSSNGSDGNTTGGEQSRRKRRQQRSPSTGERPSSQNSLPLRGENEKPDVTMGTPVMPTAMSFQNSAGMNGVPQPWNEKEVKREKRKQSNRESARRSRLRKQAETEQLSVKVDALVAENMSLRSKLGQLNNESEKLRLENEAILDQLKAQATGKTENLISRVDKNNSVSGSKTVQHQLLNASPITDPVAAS

Test [5] addresses T5, GBF1 (Arabidopsis thaliana) (UniProt P42774).
T5 sequence: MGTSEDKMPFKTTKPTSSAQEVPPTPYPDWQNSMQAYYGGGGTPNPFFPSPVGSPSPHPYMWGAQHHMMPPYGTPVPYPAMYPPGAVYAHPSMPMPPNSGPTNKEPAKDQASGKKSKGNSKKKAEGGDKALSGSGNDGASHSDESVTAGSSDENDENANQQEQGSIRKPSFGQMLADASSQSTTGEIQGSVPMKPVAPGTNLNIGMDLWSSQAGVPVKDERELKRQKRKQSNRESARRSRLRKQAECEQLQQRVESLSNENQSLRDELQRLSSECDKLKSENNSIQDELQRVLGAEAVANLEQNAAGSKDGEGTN

These are yes or no findings as the source states them, for the method shown. Binding seen in cells or lysates may run through a third protein. Some binding calls cover weakened binding; strength is not graded here.

B1: GBF3 (protein, UniProt P42776 1-382)
chain: MGNSSEEPKPPTKSDKPSSPPVDQTNVHVYPDWAAMQAYYGPRVAMPPYYNSAMAASGHPPPPYMWNPQHMMSPYGAPYAAVYPHGGGVYAHPGIPMGSLPQGQKDPPLTTPGTLLSIDTPTKSTGNTDNGLMKKLKEFDGLAMSLGNGNPENGADEHKRSRNSSETDGSTDGSDGNTTGADEPKLKRSREGTPTKDGKQLVQASSFHSVSPSSGDTGVKLIQGSGAILSPGVSANSNPFMSQSLAMVPPETWLQNERELKRERRKQSNRESARRSRLRKQAETEELARKVEALTAENMALRSELNQLNEKSDKLRGANATLLDKLKCSEPEKRVPANMLSRVKNSGAGDKNKNQGDNDSNSTSKLHQLLDTKPRAKAVAAG
For B1, the binding result in test [1], in test [2] and in test [3] was “binds” in each case.

B2: bZIP2 (protein, UniProt Q9SI15 1-171)
chain: MASSSSTYRSSSSSDGGNNNPSDSVVTVDERKRKRMLSNRESARRSRMRKQKHVDDLTAQINQLSNDNRQILNSLTVTSQLYMKIQAENSVLTAQMEELSTRLQSLNEIVDLVQSNGAGFGVDQIDGCGFDDRTVGIDGYYDDMNMMSNVNHWGGSVYTNQPIMANDINMY
B2: the binding entry is “no binding” in test [1]; “no binding” in test [4]; “binds” in test [2]; “no binding” in test [5]; “no binding” in test [3].

B3: bZIP1 (protein, UniProt Q9FGX2 1-145)
chain: MANAEKTSSGSDIDEKKRKRKLSNRESARRSRLKKQKLMEDTIHEISSLERRIKENSERCRAVKQRLDSVETENAGLRSEKIWLSSYVSDLENMIATTSLTLTQSGGGDCVDDQNANAGIAVGDCRRTPWKLSCGSLQPMASFKT
For B3, the binding entry in test [1], in test [4], in test [2], in test [5] and in test [3] was “no binding” in each case.

B4: bZIP53 (protein, UniProt Q9LZP8 1-146)
chain: MGSLQMQTSPESDNDPRYATVTDERKRKRMISNRESARRSRMRKQKQLGDLINEVTLLKNDNAKITEQVDEASKKYIEMESKNNVLRAQASELTDRLRSLNSVLEMVEEISGQALDIPEIPESMQNPWQMPCPMQPIRASADMFDC
In the case of B4, the binding entry in test [1], in test [4], in test [2], in test [5] and in test [3] was “no binding” in each case.

B5: bZIP11 (protein, UniProt O65683 1-159)
chain: MESSSSGTTSSTIQTSSGSEESLMEQRKRKRMLSNRESARRSRMKKQKLLDDLTAQVNHLKKENTEIVTSVSITTQHYLTVEAENSVLRAQLDELNHRLQSLNDIIEFLDSSNNNNNNNMGMCSNPLVGLECDDFFVNQMNMSYIMNQPLMASSDALMY
With B5, the binding entry in test [1], in test [4], in test [2], in test [5] and in test [3] was “no binding” each time.

B6: bZIP68 (protein, UniProt Q84LG2 1-389)
chain: MGSSEMEKSGKEKEPKTTPPSTSSSAPATVVSQEPSSAVSAGVAVTQDWSGFQAYSPMPPHGYVASSPQPHPYMWGVQHMMPPYGTPPHPYVTMYPPGGMYAHPSLPPGSYPYSPYAMPSPNGMAEASGNTGSVIEGDGKPSDGKEKLPIKRSKGSLGSLNMIIGKNNEAGKNSGASANGACSKSAESGSDGSSDGSDANSQNDSGSRHNGKDGETASESGGSAHGPPRNGSNLPVNQTVAIMPVSATGVPGPPTNLNIGMDYWSGHGNVSGAVPGVVVDGSQSQPWLQVSDEREIKRQRRKQSNRESARRSRLRKQAECDELAQRAEVLNGENSSLRAEINKLKSQYEELLAENSSLKNKFSSAPSLEGGDLDKNEQEPQRSTRQDVA
With B6, the binding result in test [3] is reported as “binds”.

B7: bZIP63 (protein, UniProt B9DGI8 1-314)
chain: MEKVFSDEEISGNHHWSVNGMTSLNRSASEWAFNRFIQESSAAADDGESTTACGVSVSSPPNVPVDSEEYRAFLKSKLNLACAAVAMKRGTFIKPQDTSGRSDNGGANESEQASLASSKATPMMSSAITSGSELSGDEEEADGETNMNPTNVKRVKRMLSNRESARRSRRRKQAHLSELETQVSQLRVENSKLMKGLTDVTQTFNDASVENRVLKANIETLRAKVKMAEETVKRLTGFNPMFHNMPQIVSTVSLPSETSNSPDTTSSQVTTPEIISSGNKGKALIGCKMNRTASMRRVESLEHLQKRIRSVGDQ
On to B7, for which the binding result in test [1] and in test [5] was “binds” each time.

B8: GBF2 (protein, UniProt P42775 1-360)
chain: MGSNEEGNPTNNSDKPSQAAAPEQSNVHVYHHDWAAMQAYYGPRVGIPQYYNSNLAPGHAPPPYMWASPSPMMAPYGAPYPPFCPPGGVYAHPGVQMGSQPQGPVSQSASGVTTPLTIDAPANSAGNSDHGFMKKLKEFDGLAMSISNNKVGSAEHSSSEHRSSQSSENDGSSNGSDGNTTGGEQSRRKRRQQRSPSTGERPSSQNSLPLRGENEKPDVTMGTPVMPTAMSFQNSAGMNGVPQPWNEKEVKREKRKQSNRESARRSRLRKQAETEQLSVKVDALVAENMSLRSKLGQLNNESEKLRLENEAILDQLKAQATGKTENLISRVDKNNSVSGSKTVQHQLLNASPITDPVAAS
Regarding B8, the binding result in test [1], in test [4], in test [2] and in test [3] was “binds” in each case.

B9: bZIP16 (protein, UniProt Q501B2 1-409)
chain: MASNEMEKSSKEKEPKTPPPSSTAPPSSQEPSSAVSAGMATPDWSGFQAYSPMPPPHGYVASSPQPHPYMWGVQHMMPPYGTPPHPYVAMYPPGGMYAHPSMPPGSYPYSPYAMPSPNGMTEVSGNTTGGTDGDAKQSEVKEKLPIKRSRGSLGSLNMITGKNNEPGKNSGASANGAYSKSGESASDGSSEGSDGNSQNDSGSGLDGKDAEAASENGGSANGPQNGSAGTPILPVSQTVPIMPMTAAGVPGPPTNLNIGMDYWGAPTSAGIPGMHGKVSTPVPGVVAPGSRDGGHSQPWLQDDRELKRQRRKQSNRESARRSRLRKQAECDELAQRAEVLNEENTNLRAEINKLKSQCEELTTENTSLKDQLSLFPPLEGISMDNDHQEPDTNQTGAAERKVDSYKDST
On to B9, for which the binding result in test [1] and in test [3] was “binds” throughout.
